Experimental findings from PubChem BioAssay AID1508623 (National Center for Advancing Translational Sciences (NCATS), 2021) are described below.

The whole screen tested about 48,000 compounds, of which about 450 (0.94%) were called active. About 19% were inconclusive and are not listed. Calls follow the shape of the dose curve; as a rule, active = well fitted inhibition curve with a large enough effect; inconclusive = small, poorly fitted or top-dose-only effect; inactive = no such curve, though single readings can be large or run the other way. The list shows a part of the results.
Potency is read from the fitted curve at half-maximal effect.

A short description of this assay: Primary qHTS for Identification of Small Molecule Inhibitors of Huntingtin Promoter Activity. Also: nearly all actives have a fitted effect of over 50% in size. To be noted: HEK293 HTT promoter firefly luciferase reporter (activity 0% = vehicle and -100% = no light), 24 h; series mostly up to 57.5 µM; activity change, negative = inhibition: at the top concentration. The essentials: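 Firefly luciferase signal from promoter-reporter HEK293 cells was scaled between vehicle (0%) and zero RLU (-100%). Compounds were tested at final concentrations of up to 57.5 uM over 24 h at 37 degrees C. PTC124 at 50 uM final served as control inhibitor.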
As to `CCOCN(C(=O)Cn1c(COC)nc2ccccc21)c1c(C)cccc1CC`, the “activity change, negative = inhibition” value is inactive: 17.5%.
Take `O=C(Nc1ccc(Oc2ccc(Cl)cc2)c(Cl)c1)c1cc(I)cc(I)c1O`: the “activity change, negative = inhibition” value is inactive: -1.25%.
On to `COc1cccc(CNC(=O)C2CCCN(S(=O)(=O)N(C)c3ccc(F)cc3)C2)c1OC` (stereo not drawn), for which the Potency was active: 25.1 µM.
As for `Cc1cccc(NC(=O)CSC2=Nc3ccccc3C3=NC(CC(=O)NCc4cccs4)C(=O)N23)c1` (stereo not drawn), the “activity change, negative = inhibition” value was inactive: -2.48%.
Still for that read-out and setting: the same measure for `COc1ccccc1/C=C/c1nc(C#N)c(NC2CCCCC2)o1`: inactive: 7.32%; for `COc1ccc(CNC(=O)CCCn2nc(C)n3c(cc4sccc43)c2=O)cc1`: inactive: -7.72%; for `COCCn1c(C)cc(O)c(C(c2ccccc2OC)N2CCN(c3ccccc3)CC2)c1=O` (stereo not drawn): inactive: -7.49%.
Same read-out and setting: the same measure for `Cc1ccc(NC(=O)CN2C=NS(=O)(=O)c3ccccc32)cc1`: inactive: -3.21%; for `CCOC(=O)COc1ccc(CC)cc1C(=O)c1ccn2nc(-c3ccc(F)cc3)cc2n1`: inactive: -6.27%.
Consider `COc1ccc(-c2noc(CC(=O)N(C)c3cccc(C)c3)n2)cc1`, for which the “activity change, negative = inhibition” value is inactive: -9.64%.
On the same count and under the same terms, then `CCOC(=O)c1cnc2ccc(Br)cc2c1NCCN1CCOCC1`, with inactive: -4.04%; and `COc1ccc(C(=O)c2cn(Cc3ccccc3F)c3cc4c(cc3c2=O)OCCO4)cc1OC`, with inactive: 15.2%.
As for `Cc1ccc(N2CC(NC(=O)c3ccccc3C(F)(F)F)CC2=O)cc1C` (stereo not drawn), the “activity change, negative = inhibition” value is inactive: -18.8%.
The same measure, in the same setting: the same measure for `COc1ccc(Cl)cc1S(=O)(=O)Nc1ccc2[nH]c(=O)[nH]c2c1`: inactive: -17.9%; for `Clc1ccc2c(c1)-n1cc(-c3ccccc3)nc1CO2`: inactive: 0.646%; for `CCc1ccc(S(=O)(=O)c2cn(Cc3ccccc3)c3cc(N4CCCC4)c(F)cc3c2=O)cc1`: inactive: 3.01%.
Same read-out and setting: then `Cc1ccc(Cl)cc1N1CCN(C(=O)CCS(=O)(=O)c2cc(Br)cc3c2N(C(=O)C2CC2)CC3)CC1`, with inactive: -23.8%.
Still for that read-out and setting: the same measure for `O=C(Nc1ccc(C(=O)OCc2cc(=O)n3nc(C4CC4)sc3n2)cc1)c1ccccc1`: inactive: -12.2%; for `Cc1ccc2c(c1)N(C(=O)N1CCC(C(=O)NC3CCCCCC3)CC1)CC(C)O2` (stereo not drawn): inactive: 33.2%; for `COc1cc(NC(=O)Cc2c(C(=O)O)c(C)cn2C)cc(OC)c1`: inactive: -15.6%.
`COc1ccc(/C=C/C(=O)Nc2sc3c(c2C(N)=O)CCC(C)C3)cc1OC` (stereo not drawn): the “activity change, negative = inhibition” value is inactive: -0.342%.
On the same count and under the same terms, the same measure for `CCOC(=O)c1c(NC(=O)c2cc(C)on2)sc(C)c1C`: inactive: -0.98%; for `Cc1ccc(-n2ncc3c(N4CCN(C)CC4)ncnc32)cc1Cl`: inactive: -22.7%.
On the same count and under the same terms, then `CCOc1ccc(NC(=O)CCS(=O)(=O)c2cccc3nonc23)cc1`, with inactive: -4.91%; and `CNC(=O)c1c[nH]c2ccc(S(=O)(=O)Nc3cccc(Cl)c3C)cc2c1=O`, with inactive: -20.8%; and `Cc1cc(C)cc(OCc2ccc(C(=O)Nc3ccccc3F)o2)c1`, with inactive: -3.73%.
Consider `COc1ccc(CNC(=O)CCC(=O)N2CC3CCCN3c3ccccc32)c(OC)c1` (stereo not drawn), for which the “activity change, negative = inhibition” value was inactive: -16.6%.
The same measure, in the same setting: then `Cc1cc(C)c2c(=O)cc(C(=O)Nc3sc4c(c3C(=O)NCc3cccnc3)CCCC4)oc2c1`, with inactive: 21.1%; and `CCC(Sc1nc2nccnc2c(=O)n1Cc1ccc(OC)cc1)C(=O)NC1CCCCC1` (stereo not drawn), with inactive: -8.19%.
On the same count and under the same terms, the same measure for `CC(C)n1c(SCC(=O)Nc2ccc(F)cc2)nc2c(oc3ccccc32)c1=O`: inactive: 1.55%; for `CCOc1ccccc1CNC(=O)c1ccc2c(c1)sc1nc(-c3cccc(OC)c3)cn12`: inactive: -7.61%; for `CC(C)C12CN3CC(C(C)C)(CN(C1)C3c1ccc(OCc3ccccc3)cc1)C2=O` (stereo not drawn): inactive: -3.38%.
On to `CC(=O)c1cccc(NC(=O)c2ccc(-n3c(C)nnc3C)cc2)c1`, for which the activity change, negative = inhibition was inactive: -14.9% [at 11.5 µM].
In the case of `CCOc1ccc(-n2c(SCC(=O)Nc3ccc(F)cc3)nc3c([nH]c4ccccc43)c2=O)cc1`, the “activity change, negative = inhibition” value is inactive: -13.7%.
On to `CC(C)(C)OC(=O)N1CCC(c2nnc(SCc3ccccc3)o2)CC1`, for which the “activity change, negative = inhibition” value is inactive: -34.2%.
The same measure, in the same setting: then `Cc1cc(NC(=O)COc2ccccc2)cc(-c2nc3ccccc3o2)c1O`, with inactive: -21.7%.
As to `COc1ccccc1CNC(=O)c1ccc(N2Cc3cccc(OC)c3Oc3ncccc32)s1`, the “activity change, negative = inhibition” value was inactive: -1.3%.
Still for that read-out and setting: then `COc1ccc(-c2noc(-c3ccc(N4CCCCC4C)c([N+](=O)[O-])c3)n2)cc1OC` (stereo not drawn), with inactive: -5.21%.
`CCCn1c(-c2cccc(Br)c2)nc2ccccc21`: the “activity change, negative = inhibition” value is inactive: 10.7%.
The same measure, in the same setting: then `CCCN1C(=O)C(Cc2nc3ccccc3c(=O)n2-c2cccc(C)c2)c2ccccc21` (stereo not drawn), with inactive: -18.4%; and `Cn1ncc(C(=O)N2CCN(c3ccc(F)cc3)CC2)c1C1CCN(C(=O)OC(C)(C)C)CC1`, with inactive: -9.12%.
On to `Cc1ccc(C2=CC(c3c(F)cccc3Cl)n3ncnc3N2)cc1C` (stereo not drawn), for which the activity change, negative = inhibition is inactive: -15.4% [at 11.5 µM].
Take `Cc1cc(C)cc(NC(=O)C2CCCN2S(=O)(=O)c2cccc3nsnc23)c1` (stereo not drawn): the “activity change, negative = inhibition” value is inactive: -27.7%.
The same measure, in the same setting: the same measure for `O=C(CSc1nnc2[nH]c(=O)cc(-c3ccccc3)n12)Nc1ccc(F)cc1F`: inactive: 34.5%.
Consider `Cc1ccc(C(=O)n2nc(C)c(S(=O)(=O)N3CCCCCC3)c2C)cc1`, for which the “activity change, negative = inhibition” value was inactive: -6.18%.
As to `COc1cccc(C2C(C(=O)Nc3ccccc3)=C(C)Nc3nc(-c4ccccc4)nn32)c1OC` (stereo not drawn), the “activity change, negative = inhibition” value is inactive: -11.9%.
On to `Cc1cccc(-c2noc(-c3ccc(N4CCN(C)CC4)c([N+](=O)[O-])c3)n2)c1`, for which the Potency is active: 1.41 µM.
`COc1ccc(CNc2nc3c(c(=O)n(C)c(=O)n3C)n2Cc2ccccc2Cl)cc1`: the “activity change, negative = inhibition” value is inactive: -13.4%.
